# Assay results as given in the supplement of paper PMC10724272.
# MIC of invasive clinical C. tropicalis isolates, CLSI broth microdilution (fluconazole 0.12-256 mg/L, up to 1,024 for the azole-resistant cluster and its neighbour group; other ranges not stated); higher = less susceptible. Call: susceptible or wild type [S] / resistant or non-wild type [R] by CLSI breakpoints or cut-offs; intermediate and dose-dependent carry no call. '<=' and '>=' at the end values are inferred; the source marks only some of them. Isolates are numbered anew.
# Compound: OC(Cn1cncn1)(Cn1cncn1)c1ccc(F)cc1F [fluconazole]
# Experiment: CLSI broth microdilution.
row,Test System,MIC
1,"Candida tropicalis isolate 288 (ERG11 copies: 2, Erg11p: no key change)",1 mg/L [S]
2,"Candida tropicalis isolate 164 (ERG11 copies: 2, Erg11p: no key change)",1 mg/L [S]
3,"Candida tropicalis isolate 303 (ERG11 copies: 2, Erg11p: no key change)",1 mg/L [S]
4,"Candida tropicalis isolate 62 (ERG11 copies: 2, Erg11p: no key change)",2 mg/L [S]
5,"Candida tropicalis isolate 54 (ERG11 copies: 2, Erg11p: no key change)",2 mg/L [S]
6,"Candida tropicalis isolate 307 (ERG11 copies: 2, Erg11p: no key change)",2 mg/L [S]
7,"Candida tropicalis isolate 299 (ERG11 copies: 2, Erg11p: no key change)",1 mg/L [S]
8,"Candida tropicalis isolate 256 (ERG11 copies: 2, Erg11p: no key change)",1 mg/L [S]
9,"Candida tropicalis isolate 401 (ERG11 copies: 10, Erg11p: Y132F, S154F (heterozygous))",512 mg/L [R]
10,"Candida tropicalis isolate 443 (ERG11 copies: 2, Erg11p: no key change)",1 mg/L [S]
11,"Candida tropicalis isolate 80 (ERG11 copies: 2, Erg11p: no key change)",2 mg/L [S]
12,"Candida tropicalis isolate 338 (ERG11 copies: 2, Erg11p: no key change)",1 mg/L [S]
13,"Candida tropicalis isolate 411 (ERG11 copies: 2, Erg11p: no key change)",4 µg/mL
14,"Candida tropicalis isolate 246 (ERG11 copies: 2, Erg11p: no key change)",2 mg/L [S]
15,"Candida tropicalis isolate 7 (ERG11 copies: 2, Erg11p: no key change)",0.5 mg/L [S]
16,"Candida tropicalis isolate 382 (ERG11 copies: 2, Erg11p: no key change)",2 mg/L [S]
17,"Candida tropicalis isolate 19 (ERG11 copies: 8, Erg11p: Y132F, S154F (homozygous))",512 mg/L [R]
18,"Candida tropicalis isolate 211 (ERG11 copies: 2, Erg11p: no key change)",2 mg/L [S]
19,"Candida tropicalis isolate 131 (ERG11 copies: 2, Erg11p: no key change)",1 mg/L [S]
20,"Candida tropicalis isolate 93 (ERG11 copies: 2, Erg11p: no key change)",2 mg/L [S]
21,"Candida tropicalis isolate 276 (ERG11 copies: 7, Erg11p: Y132F, S154F (heterozygous))",512 mg/L [R]
22,"Candida tropicalis isolate 39 (ERG11 copies: 8, Erg11p: Y132F, S154F (heterozygous))",512 mg/L [R]
23,"Candida tropicalis isolate 94 (ERG11 copies: 2, Erg11p: no key change)",1 mg/L [S]
24,"Candida tropicalis isolate 208 (ERG11 copies: 2, Erg11p: no key change)",1 mg/L [S]
25,"Candida tropicalis isolate 336 (ERG11 copies: 2, Erg11p: no key change)",2 mg/L [S]
26,"Candida tropicalis isolate 230 (ERG11 copies: 2, Erg11p: no key change)",0.5 mg/L [S]
27,"Candida tropicalis isolate 181 (ERG11 copies: 2, Erg11p: no key change)",2 mg/L [S]

# Compound: CC[C@H](C)C[C@H](C)CCCCCCCCC(=O)N[C@H]1C[C@@H](O)[C@@H](NCCN)NC(=O)[C@@H]2[C@@H](O)CCN2C(=O)[C@H]([C@H](O)CCN)NC(=O)[C@H]([C@H](O)[C@@H](O)c2ccc(O)cc2)NC(=O)[C@@H]2C[C@@H](O)CN2C(=O)[C@H]([C@@H](C)O)NC1=O [caspofungin]
# Experiment: CLSI broth microdilution.
row,Test System,MIC
1,"Candida tropicalis isolate 59 (ERG11 copies: 2, Erg11p: no key change)",0.06 mg/L [S]
2,"Candida tropicalis isolate 269 (ERG11 copies: 6, Erg11p: Y132F, S154F (heterozygous))",0.03 mg/L [S]
3,"Candida tropicalis isolate 301 (ERG11 copies: 2, Erg11p: no key change)",0.03 mg/L [S]
4,"Candida tropicalis isolate 137 (ERG11 copies: 2, Erg11p: no key change)",0.12 mg/L [S]
5,"Candida tropicalis isolate 17 (ERG11 copies: 2, Erg11p: no key change)",0.03 mg/L [S]
6,"Candida tropicalis isolate 425 (ERG11 copies: 2, Erg11p: no key change)",0.03 mg/L [S]
7,"Candida tropicalis isolate 185 (ERG11 copies: 2, Erg11p: no key change)",0.12 mg/L [S]
8,"Candida tropicalis isolate 83 (ERG11 copies: 2, Erg11p: no key change)",0.03 mg/L [S]
9,"Candida tropicalis isolate 157 (ERG11 copies: 8, Erg11p: Y132F, S154F (heterozygous))",0.03 mg/L [S]
10,"Candida tropicalis isolate 288 (ERG11 copies: 2, Erg11p: no key change)",0.03 mg/L [S]
11,"Candida tropicalis isolate 164 (ERG11 copies: 2, Erg11p: no key change)",0.03 mg/L [S]
12,"Candida tropicalis isolate 303 (ERG11 copies: 2, Erg11p: no key change)",0.12 mg/L [S]
13,"Candida tropicalis isolate 62 (ERG11 copies: 2, Erg11p: no key change)",0.03 mg/L [S]
